Experimental data taken from PubChem BioAssay AID1745853 (National Center for Advancing Translational Sciences (NCATS), 2022).
This is one part of the list. Shown are side measurements of this screen, not its main read-out; they come without a call.

Tests used:
Experiment in all cases: Primary Screen for Target Class Profiling of Small Molecule Inhibitors of Methyltransferases
[1] = biological target: Glycine N-methyltransferase (Homo sapiens) (UniProt Q14749); conditions: purified enzyme, MTase-Glo SAH luminescence; measured here: GNMT inhibition; at 40 µM; stronger effect = lower value
In short: (§1)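 Each enzyme was reacted with SAM and its substrate, with compounds tested once at 40 uM; SAH formed was read by MTase-Glo luminescence.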

[2] = biological target: Guanidinoacetate N-methyltransferase (Homo sapiens) (UniProt Q14353); conditions: purified enzyme, MTase-Glo SAH luminescence; measured here: GAMT inhibition; at 40 µM; stronger effect = lower value
In short: as §1

[3] = biological target: Histamine N-methyltransferase (Homo sapiens) (UniProt P50135); conditions: purified enzyme, MTase-Glo SAH luminescence; measured here: HNMT inhibition; at 40 µM; stronger effect = lower value
In short: as §1

[4] = biological target: Nicotinamide N-methyltransferase (Homo sapiens) (UniProt P40261); conditions: purified enzyme, MTase-Glo SAH luminescence; measured here: NNMT inhibition; at 40 µM; stronger effect = lower value
In short: as §1

[5] = biological target: Phenylethanolamine N-methyltransferase (Homo sapiens) (UniProt P11086); conditions: purified enzyme, MTase-Glo SAH luminescence; measured here: PNMT inhibition; at 40 µM; stronger effect = lower value
In short: as §1
% is scaled to controls: 0 for no effect and ±100 for the full control effect.

Molecule `CCCNC(=O)Nc1ccc(Oc2ncnc3cc(OC)c(OC)cc23)cc1Cl` has an activity change, negative = inhibition [1] of -3.08%, an activity change, negative = inhibition [2] of 4.2% and an activity change, negative = inhibition [3] of 3.3%. It also gave an activity change, negative = inhibition [4] of -10.3% and an activity change, negative = inhibition [5] of 5.38%.

`C/C=C(\C)C(=O)OC1C[C@@]2(COC(C)=O)O[C@H]2/C=C\[C@@]2(C)O[C@@H]2[C@H]2OC(=O)C(COC(C)=O)=C12` (stereo partly drawn) gave an activity change, negative = inhibition [1] of -3.59%, an activity change, negative = inhibition [2] of -18.4% and an activity change, negative = inhibition [3] of 2.82%. It also gave an activity change, negative = inhibition [4] of -29.7% and an activity change, negative = inhibition [5] of -1.71%.

`CN1CCN(C[C@@H]2CN(C(=O)CCCc3cccs3)C[C@@H]2CO)CC1` gave an activity change, negative = inhibition [1] of 1.21%, an activity change, negative = inhibition [2] of 3.54% and an activity change, negative = inhibition [3] of -0.802%. For the same molecule, the activity change, negative = inhibition [4] was -1.49% and the activity change, negative = inhibition [5] was 15.8%.

`CCOc1ccc(CNC(=O)C(CC)n2ccc3cc(S(=O)(=O)N4CCCCC4)ccc32)cc1` (stereo not drawn) was tested, and the activity change, negative = inhibition [1] was 9.72%, the activity change, negative = inhibition [2] was 0% and the activity change, negative = inhibition [3] was 7.32%. For the same molecule, the activity change, negative = inhibition [4] was 7.62% and the activity change, negative = inhibition [5] was 4.28%.

In the case of `Cc1ccc(S(=O)(=O)c2nnn3c2nc(NCc2ccccc2)c2ccccc23)cc1`, the activity change, negative = inhibition [1] is reported as -2.67%, the activity change, negative = inhibition [2] is reported as 0% and the activity change, negative = inhibition [3] is reported as 4.62%. It also gave an activity change, negative = inhibition [4] of 0.945% and an activity change, negative = inhibition [5] of 0.075%.

`O=C(NCc1ccccn1)Nc1nnc(-c2ccco2)o1` gave an activity change, negative = inhibition [1] of 1.61%, an activity change, negative = inhibition [2] of -3.34% and an activity change, negative = inhibition [3] of 1.52%. It also gave an activity change, negative = inhibition [4] of -14.2% and an activity change, negative = inhibition [5] of -6.4%.

Work on `CCCn1c(=O)c2ccc(C(=O)NC3CCCCC3)cc2n2c(SCC(N)=O)nnc12` yielded an activity change, negative = inhibition [1] of 1.13%, an activity change, negative = inhibition [2] of 0% and an activity change, negative = inhibition [3] of 3.89%. For the same molecule, the activity change, negative = inhibition [4] was 4.49% and the activity change, negative = inhibition [5] was 2.76%.

`CCN1C(=O)c2cc(C(=O)NCc3ccc(OC)cc3)nn2CC1(C)C(=O)NC1CCCC1` (stereo not drawn) gave an activity change, negative = inhibition [1] of 4.62%, an activity change, negative = inhibition [2] of 0% and an activity change, negative = inhibition [3] of -0.666%. The activity change, negative = inhibition [4] was 9.35% and the activity change, negative = inhibition [5] was 4.79%.

`CCOc1ccccc1CN1C(=O)CSc2c(c3ccccc3n2C)C1C(=O)NCc1ccccc1` (stereo not drawn) was tested, and the activity change, negative = inhibition [1] was 4.3%, the activity change, negative = inhibition [2] was 0.017% and the activity change, negative = inhibition [3] was -1.82%. It also gave an activity change, negative = inhibition [4] of 2.64% and an activity change, negative = inhibition [5] of 5.47%.

For `Cc1ccc(C)c(C(=O)N[C@@H]2CN(c3ccncn3)C[C@H]2CO)c1`, the activity change, negative = inhibition [1] was -0.299%, the activity change, negative = inhibition [2] was -2.13% and the activity change, negative = inhibition [3] was 1.02%. It also gave an activity change, negative = inhibition [4] of -4.49% and an activity change, negative = inhibition [5] of -17.6%.

`COc1ccc(C(=O)N[C@H]2CO[C@H]3[C@@H]2OC[C@@H]3Nc2nccc(-c3cccs3)n2)cc1` was tested, and the activity change, negative = inhibition [1] was -17.1%, the activity change, negative = inhibition [2] was -1.92% and the activity change, negative = inhibition [3] was -0.669%. For the same molecule, the activity change, negative = inhibition [4] was -4.46% and the activity change, negative = inhibition [5] was -4.7%.

With `O=C(COc1ccccc1)N[C@H]1CO[C@H]2[C@@H]1OC[C@@H]2n1nnnc1Oc1ccc2c(c1)OCO2` the activity change, negative = inhibition [1] was -2.04%, the activity change, negative = inhibition [2] was -2.76% and the activity change, negative = inhibition [3] was -0.931%. It also gave an activity change, negative = inhibition [4] of 3.91% and an activity change, negative = inhibition [5] of -3.81%.

With `O=c1c2ccccc2n2c(-c3ccccc3F)nnc2n1Cc1ccc(F)cc1` the activity change, negative = inhibition [1] was -10.4%, the activity change, negative = inhibition [2] was 3.84% and the activity change, negative = inhibition [3] was -2.94%. The activity change, negative = inhibition [4] was -11.4% and the activity change, negative = inhibition [5] was -0.425%.

`CN(C)C(=O)C(=O)c1cn(C)c2cc(Cl)c(C(=O)N3CCC(Cc4ccc(F)cc4)CC3)cc12` showed an activity change, negative = inhibition [1] of -7.95%, an activity change, negative = inhibition [2] of 5.78% and an activity change, negative = inhibition [3] of 5.12%. The activity change, negative = inhibition [4] was -26% and the activity change, negative = inhibition [5] was 4.16%.

`CCCn1c(=O)c2ccc(Cl)cc2n2c(=O)n(CC(=O)c3ccccc3)nc12` showed an activity change, negative = inhibition [1] of -1.98%, an activity change, negative = inhibition [2] of 1.38% and an activity change, negative = inhibition [3] of 6.5%. For the same molecule, the activity change, negative = inhibition [4] was -6.48% and the activity change, negative = inhibition [5] was 2.17%.

`O=C(NC[C@H]1OC[C@@H](NC2CCOCC2)[C@@H]1O)N1CCOCC1` showed an activity change, negative = inhibition [1] of -2.6%, an activity change, negative = inhibition [2] of -5.83% and an activity change, negative = inhibition [3] of -1.02%. For the same molecule, the activity change, negative = inhibition [4] was -12.7% and the activity change, negative = inhibition [5] was -3.2%.

`CC1(C(=O)NC2CCCCC2)Cn2c(nc3ccccc32)C(=O)N1Cc1ccco1` (stereo not drawn) gave an activity change, negative = inhibition [1] of 3.59%, an activity change, negative = inhibition [2] of 0% and an activity change, negative = inhibition [3] of 5.21%. It also gave an activity change, negative = inhibition [4] of 4.3% and an activity change, negative = inhibition [5] of 1.89%.

`O=C([C@@H]1C[C@H](Oc2ccccc2)CN1C(=O)Nc1ccccc1F)N1CCOCC1` was tested, and the activity change, negative = inhibition [1] was -4.77%, the activity change, negative = inhibition [2] was -8.56% and the activity change, negative = inhibition [3] was -6.15%. The activity change, negative = inhibition [4] was -12% and the activity change, negative = inhibition [5] was -32.2%.

`CC(C)(CO)c1cc2cc(NC(=O)C3(c4ccc5c(c4)OC(F)(F)O5)CC3)c(F)cc2n1CC(O)CO` (stereo not drawn) was tested, and the activity change, negative = inhibition [1] was 3.77%, the activity change, negative = inhibition [2] was 24.2% and the activity change, negative = inhibition [3] was 10.4%. The activity change, negative = inhibition [4] was 3.84% and the activity change, negative = inhibition [5] was 8.89%.

`CSc1cccc(N2C(=O)c3ccc(-c4ccco4)n3CC2(C)C(=O)NC2CCCC2)c1` (stereo not drawn) showed an activity change, negative = inhibition [1] of -18%, an activity change, negative = inhibition [2] of 0% and an activity change, negative = inhibition [3] of 0.661%. For the same molecule, the activity change, negative = inhibition [4] was -10.8% and the activity change, negative = inhibition [5] was -10.2%.

In the case of `CC(C)CNC(=O)c1ccc2c(=O)n(C)c3nn(CC(=O)NC4CCCCC4)c(=O)n3c2c1`, the activity change, negative = inhibition [1] is reported as 1.6%, the activity change, negative = inhibition [2] is reported as 2.55% and the activity change, negative = inhibition [3] is reported as 2.38%. It also gave an activity change, negative = inhibition [4] of -4.85% and an activity change, negative = inhibition [5] of -1.49%.

`C[C@@H](O[C@H]1OCCN(Cc2n[nH]c(=O)[nH]2)[C@H]1c1ccc(F)cc1)c1cc(C(F)(F)F)cc(C(F)(F)F)c1` gave an activity change, negative = inhibition [2] of 12.5%, an activity change, negative = inhibition [4] of -15.8% and an activity change, negative = inhibition [5] of 6.49%.

For `CN1C(=O)c2cc(C(=O)NC3CCCC3)nn2CC1(C)C(=O)NCc1ccccc1` (stereo not drawn), the activity change, negative = inhibition [1] was 5.98%, the activity change, negative = inhibition [2] was 0.174% and the activity change, negative = inhibition [3] was 3.78%. The activity change, negative = inhibition [4] was 8.02% and the activity change, negative = inhibition [5] was 2.95%.

Work on `O=C(Cn1c(=O)oc2cc(S(=O)(=O)N3CCCC3)ccc21)Nc1cc(F)ccc1F` yielded an activity change, negative = inhibition [1] of 1.7%, an activity change, negative = inhibition [2] of 0% and an activity change, negative = inhibition [3] of 5.42%. It also gave an activity change, negative = inhibition [4] of 10.9% and an activity change, negative = inhibition [5] of -5.22%.

`CN1[C@H](C(=O)O)C[C@H](C(=O)NCC2(CO)CCCC2)[C@@H]1c1ccccc1F` gave an activity change, negative = inhibition [1] of -3.41%, an activity change, negative = inhibition [2] of -13.2% and an activity change, negative = inhibition [3] of -2.35%. The activity change, negative = inhibition [4] was -12.5% and the activity change, negative = inhibition [5] was -2.74%.

In the case of `COc1ccc(NC(=O)COc2ccc(NC(=O)C3CC3)cn2)cc1`, the activity change, negative = inhibition [1] is reported as -10.3%, the activity change, negative = inhibition [2] is reported as -12.1% and the activity change, negative = inhibition [3] is reported as -4.61%. For the same molecule, the activity change, negative = inhibition [4] was -18.9% and the activity change, negative = inhibition [5] was -14.8%.

Work on `COC(=O)Cn1nc(-c2cccc(OC)c2)c2ccccc21` yielded an activity change, negative = inhibition [1] of 0.391%, an activity change, negative = inhibition [2] of 2.32% and an activity change, negative = inhibition [3] of 9.62%. It also gave an activity change, negative = inhibition [4] of -12.4% and an activity change, negative = inhibition [5] of 1.41%.

`COc1cccc(CN2CCN(C(=O)c3cnc4ccccn4c3=O)CC2=O)c1` was tested, and the activity change, negative = inhibition [1] was -1.97%, the activity change, negative = inhibition [2] was -0.678% and the activity change, negative = inhibition [3] was 0.62%. It also gave an activity change, negative = inhibition [4] of -1.89% and an activity change, negative = inhibition [5] of -1.35%.

With `CCOC(=O)c1cc2n(n1)CC(C)(C(=O)NC1CCCCC1)N(c1cccc(CC)c1)C2=O` (stereo not drawn) the activity change, negative = inhibition [1] was 4.36%, the activity change, negative = inhibition [2] was 0% and the activity change, negative = inhibition [3] was -5.71%. For the same molecule, the activity change, negative = inhibition [4] was 3.36% and the activity change, negative = inhibition [5] was 5.08%.

Work on `N#Cc1ccc(C(=O)Nc2ccc(=O)n3c2[C@@H]2C[C@@H](CN(C(=O)c4ccc(F)cc4)C2)C3)cc1` yielded an activity change, negative = inhibition [1] of -8.5%, an activity change, negative = inhibition [2] of -9.31% and an activity change, negative = inhibition [3] of -5.07%. The activity change, negative = inhibition [4] was -8.46% and the activity change, negative = inhibition [5] was -2.15%.
